Assay results from PubChem BioAssay AID2060491 (Molecular Pharmacology Branch, DTP, NCI, 2025).
Not every entry of the source has a single result; some have several. The other results are left out here. An entry can have further records. The records of an entry are repeated measurements across runs, samples, wells, individuals or studies. Brackets with × say how often a value occurs here.
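Note: spheroids exposed to compounds for one week before readout.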

These molecules were tested on 857933-349-R-J2-PDC complex spheroids, viability (assay: Anticancer human tumor 857933-349-R-J2-PDC patient-derived colon adenocarcinoma cell line growth inhibition [GQUAD]). Details: compound alone.
Description: DNA G-quadruplex Stabilizer Agents in Combinations in Complex Spheroids
A high-throughput screen of multi-cell type tumor spheroids was designed to identify active combinations of DNA G-quadruplex stabilizer agents and targeted small molecules. Complex spheroids include a stromal component modeled by human endothelial cells (HUVEC) and fibroblasts modeled by human mesenchymal stem cells (MSCs). The concentration ranges selected for each drug and investigational agent were based upon clinically achievable concentrations if the clinical Cmax of the agent was known.
Compounds. The drugs and investigational agents: pidnarulex (CX-5461; NSC782164), APTO-253 (NSC789042), BRACO-19 (NSC847499), peposertib (NSC802822), ceralasertib (NSC780249), elimusertib (NSC800525), camonsertib (NSC841442), AZD-1390 (NSC803789), olaparib (NSC753686), talazoparib (NSC767125), ART-558 (NSC835418), sotorasib (NSC818433), MRTX-1133 (NSC836407), SN-38 (NSC673596), topotecan (NSC609699), etoposide (NSC141540), doxorubicin (NSC123127), gemcitabine (NSC613327), 5-fluorouracil (NSC19893), paclitaxel (NSC125973), vemurafenib (NSC761431), panobinostat (NSC761190), R-306465 (JNJ-16241199; NSC773264), adavosertib (NSC754352), TP-3654 (NSC805149), carboplatin (NSC241240), KSQ-4279 (NSC840948), and staurosporine (NSC755774) were obtained from the National Cancer Institute (NCI) Developmental Therapeutics Program Chemical Repository (34). The FDA-approved anticancer drug set is available from the NCI Developmental Therapeutics Program. […] The stock solutions were prepared in dimethyl sulfoxide (DMSO, Sigma-Aldrich, St. Louis, MO, cat. D2650) at 800-fold the tested concentration and stored at -70 degrees C prior to their use. All drugs and investigational agents were tested over a range starting from a high concentration at or near the clinical Cmax and decreasing in half-log increments. If the clinical Cmax for an agent had not been determined, the highest concentration tested was 10 microM.
2.3 Cell Culture. All cells were maintained in an incubator at 37 degrees C and 5% CO2 with 95% humidity. […]
COc1cc(C2c3cc4c(cc3C(OC3OC5COC(C)OC5C(O)C3O)C3COC(=O)C23)OCO4)cc(OC)c1O (stereo not drawn) was tested, and the IC50 was 477 nM, 488 nM, 6.13 µM. In the case of CC1COCCN1c1cc(-c2ccnn2C)c2ccnc(-c3ccn[nH]3)c2n1 (stereo not drawn), the IC50 is reported as 112 nM and > 10 µM (2×). In the case of CC1COCCN1c1cc(C2(O)CC3CCC(C2)O3)c2cnn(-c3ccn[nH]3)c2n1 (stereo not drawn), the IC50 is reported as 122 nM, 178 nM, > 10 µM.
